# The supplement of paper PMC12462457
# Where a name gives a salt, the structure may show the parent alone. ± gives the standard deviation of the averaged measurements. Some of the results follow.
# System: OVCAR8
# Assay: cell count relative to DMSO vehicle (fold change); OVCAR8 is a high-grade serous ovarian cancer line and CX-5461 an RNA polymerase I inhibitor; higher = more surviving senescent cells (less killing)
# Conditions: senescence inducer: CX-5461 3 µM 48 h, then 6 d recovery (CX senescent), exposure time 24 h
Compound,cell count (compound dose 1 µM),cell count (compound dose 5 µM)
COc1ccnc(C[S+]([O-])c2nc3cc(OC(F)F)ccc3[nH]2)c1OC (configuration not stated) [Pantoprazole (sodium hydrate)],1 ± 0.11,1.1 ± 0.2
COc1ccnc(C[S+]([O-])c2nc3cc(OC(F)F)ccc3[nH]2)c1OC (configuration not stated) [Pantoprazole (sodium)],0.995 ± 0.047,1.02 ± 0.15
Nc1ccn([C@@H]2O[C@H](CO)[C@@H](O)[C@@H]2O)c(=O)n1 [Cytarabine],1.07 ± 0.32,1.02 ± 0.43
COc1ccc(-c2coc3cc(O)ccc3c2=O)cc1O [Calycosin],1.17 ± 0.27,1.2 ± 0.41
CN(Cc1cnc2nc(N)nc(N)c2n1)c1ccc(C(=O)N[C@@H](CCC(=O)O)C(=O)O)cc1 [Methotrexate (disodium)],1.08 ± 0.22,1.028 ± 0.0092
CN(Cc1cnc2nc(N)nc(N)c2n1)c1ccc(C(=O)N[C@@H](CCC(=O)O)C(=O)O)cc1 [Methotrexate],1.17 ± 0.21,1.11 ± 0.26
CCCC[C@@H](C=O)NC(=O)[C@H](CC(C)C)NC(=O)[C@H](CC(C)C)NC(C)=O,1.12 ± 0.1,1.17 ± 0.045
Nc1nc(NC2CC2)c2ncn([C@H]3C=C[C@@H](CO)C3)c2n1,1.13 ± 0.028,1.17 ± 0.076
Nc1nc(NC2CC2)c2ncn([C@H]3C=C[C@@H](CO)C3)c2n1 [Abacavir],0.971 ± 0.09,0.949 ± 0.069
COc1cc(C=CC(=O)O)cc(OC)c1O,1.07 ± 0.047,1.02 ± 0.1
COc1cc(C(C)=O)ccc1O [Apocynin],1.1 ± 0.17,1.08 ± 0.12
"O=C(/C=C/c1ccc(O)c(O)c1)O[C@@H]1[C@H](O)C[C@@](O)(C(=O)O)C[C@H]1OC(=O)/C=C/c1ccc(O)c(O)c1 [4,5-Dicaffeoylquinic acid]",1.2 ± 0.28,1.15 ± 0.33
COC(=O)c1ccc([C@H]2c3[nH]c4ccccc4c3C[C@H](C(=O)OC)N2C(=O)CCl)cc1,0.025 ± 0.0042,0.0205 ± 0.005
CCCCCCCCCCCCc1ccc(S(=O)(=O)Nc2nncs2)cc1,1.1 ± 0.06,1.12 ± 0.12
C[C@H]1[C@H](C)CC[C@]2(C(=O)O)CC[C@]3(C)C(=CC[C@@H]4[C@@]5(C)C[C@@H](O)[C@H](O)[C@@](C)(CO)[C@@H]5CC[C@]43C)[C@H]12 [Asiatic acid],1.04 ± 0.12,1.09 ± 0.17
Cc1ccc([N+](=O)[O-])cc1S(=O)(=O)N(C)/N=C/c1cnc2ccc(Br)cn12 [PIK-75 (hydrochloride)],0.924 ± 0.042,1.21 ± 0.14
COc1cc(-c2ccc(=O)[nH]n2)ccc1OC(F)F [Zardaverine],0.953 ± 0.42,1.04 ± 0.11
CCCCCCCc1ccc(CCc2cccc(O)c2C(=O)O)cc1,1.2 ± 0.24,1.31 ± 0.093
COc1cc(OC)c(/C=C/S(=O)(=O)Cc2ccc(OC)c(NCC(=O)O)c2)c(OC)c1 [Rigosertib (sodium)],1.17 ± 0.042,1.32 ± 0.023
CC(C)(C)S(=O)(=O)c1ccc2nccc(Nc3n[nH]c4ccc(F)cc34)c2c1,1.12 ± 0.15,1.16 ± 0.26
Nc1nc(OCc2ccccc2)c2nc[nH]c2n1 [O6-Benzylguanine],1.1 ± 0.16,1.09 ± 0.035
Cn1cc(-c2ccc3c(c2)CCN3C(=O)Cc2cccc(C(F)(F)F)c2)c2c(N)ncnc21,0.957 ± 0.0014,1.03 ± 0.011

Compound,cell count (compound dose 1 µM),cell count (compound dose 5 µM)
Oc1cccc(-c2nc(N3CCOCC3)c3oc4ncccc4c3n2)c1,1.244 ± 0.0064,1.06 ± 0.05
Cc1cc(C)c(S(=O)(=O)Nc2cccc(C(F)(F)F)c2)c(C)c1,1.08 ± 0.22,1.01 ± 0.11
Cc1ccc(Oc2ccnc3cc(-c4cnn(C5CCNCC5)c4)ccc23)cc1,0.964 ± 0.077,0.948 ± 0.076
CCN(CC)CCCCNc1ncc2cc(-c3cc(OC)cc(OC)c3)c(NC(=O)NC(C)(C)C)nc2n1,1.12 ± 0.31,1.2 ± 0.17
C/C=C/C/C=C/CCC(=O)[C@H]1O[C@H]1C(N)=O [Cerulenin],1.09 ± 0.03,1.07 ± 0.068
CC(C)S(=O)(=O)c1ccc2nccc(Nc3ccc4scnc4c3)c2c1,1.1 ± 0.057,1.07 ± 0.028
Oc1cc(O)c2c(c1)O[C@H](c1ccc(O)c(O)c1)[C@H](O)[C@H]2c1c(O)cc(O)c2c1O[C@H](c1ccc(O)c(O)c1)[C@H](O)[C@H]2c1c(O)cc(O)c2c1O[C@H](c1ccc(O)c(O)c1)[C@H](O)C2 [Procyanidin C1],1.06 ± 0.2,1.02 ± 0.19
C[N+](C)(C)CCC(=O)c1ccc2ccccc2c1,1.09 ± 0.31,1.12 ± 0.28
C[C@H](NC(=O)C(=O)Nc1ccccc1C(C)(C)C)C(=O)N[C@@H](CC(=O)O)C(=O)COc1c(F)c(F)cc(F)c1F [Emricasan],1.06 ± 0.49,1.15 ± 0.35
CN(C)CCN1CCN(CCCN2c3ccccc3Sc3ccc(C(F)(F)F)cc32)CC1 [ZZW-115 (hydrochloride)],1.17 ± 0.12,1.14 ± 0.12
CC[C@H](CO)Nc1nc(NCc2ccc(-c3ccccn3)cc2)c2ncn(C(C)C)c2n1 [(R)-CR8 (trihydrochloride)],0.639 ± 0.1,0.834 ± 0.21
Nc1ncnc2n[nH]c(Nc3ccc(F)cc3)c12,1.12 ± 0.26,1.32 ± 0.33
CCN(CC)CCCC(C)Nc1nc(C)cc(Nc2ccc3nc(C)cc(N)c3c2)n1 (configuration not stated),1.14 ± 0.012,1.19 ± 0.084
C#CCC(Cc1cnc2nc(N)nc(N)c2n1)c1ccc(C(=O)N[C@@H](CCC(=O)O)C(=O)O)cc1 (some centres not stated) [Pralatrexate],0.925 ± 0.2,1.052 ± 0.0035
C=C(C)[C@@H]1CC[C@]2(C(=O)OCC(N)(CO)CO)CC[C@]3(C)[C@H](CC[C@@H]4[C@@]5(C)CC[C@H](OC(C)=O)C(C)(C)[C@@H]5CC[C@]43C)[C@@H]12,1.05 ± 0.14,1.03 ± 0.061
Nc1cccc(Nc2ncc(-c3ccc(Cl)cc3)o2)c1,0.988 ± 0.043,1.37 ± 0.24
Cc1ccc2nc(N)[nH]c(=O)c2c1Sc1ccncc1 [Nolatrexed dihydrochloride],1.1605 ± 0.00071,1.03 ± 0.062
C=C[C@]1(C)CC[C@@H](C(=C)C)C[C@H]1C(=C)C [β-Elemene],1.06 ± 0.3,1.1 ± 0.26
C=C(C)[C@@H]1CC=C(CO)CC1 [(S)-(-)-Perillyl alcohol],0.873 ± 0.095,0.515 ± 0.094
NS(=O)(=O)c1ccc(-n2nc(C(F)(F)F)cc2-c2ccc(Cl)cc2)cc1,1.25 ± 0.25,0.997 ± 0.16
O=C1NC(=O)C(=Cc2ccc(-c3ccc(F)cc3)o2)S1 (stereo in doubt),1.16 ± 0.23,1.18 ± 0.27
CN(C)C/C=C/C(=O)Nc1cc2c(Nc3ccc(F)c(Cl)c3)ncnc2cc1O[C@H]1CCOC1 [Afatinib],0.9 ± 0.043,0.545 ± 0.061

Compound,cell count (compound dose 1 µM),cell count (compound dose 5 µM)
CCc1c(Cl)c(O)c(Cl)c(O)c1C(=O)O[C@H]1[C@H](O)[C@H](OC)[C@H](OC/C2=C\C=C\C[C@H](O)/C(C)=C/[C@H](CC)[C@@H](O[C@@H]3OC(C)(C)[C@@H](OC(=O)C(C)C)[C@H](O)[C@@H]3O)/C(C)=C/C(C)=C/C[C@@H]([C@@H](C)O)OC2=O)O[C@@H]1C [Fidaxomicin],1.08 ± 0.33,1.14 ± 0.26
O=C1NCCCc2c1oc1ccc(O)cc21,1.04 ± 0.2,1.07 ± 0.2
COc1cc(-c2cc(=O)c3c(O)c(OC)c(O)cc3o2)ccc1O [Jaceosidin],1.13 ± 0.2,1.1 ± 0.37
CCCOc1ccc(S(=O)(=O)N2CCN(CCO)CC2)cc1-c1nc2c(CCC)cn(CC)c2c(=O)[nH]1 [Mirodenafil (dihydrochloride)],1.16 ± 0.24,1.16 ± 0.18
N#Cc1c(NC(=O)c2cccc3ccccc23)sc2c1CCCC2,1.16 ± 0.04,1.13 ± 0.039
CC(C)C(C)C(O)C(O)C(C)C1CCC2C3COC(=O)C4CC(O)C(O)CC4(C)C3CCC12C (configuration not stated) [Brassinolide],1.262 ± 0.011,1.21 ± 0.19
CC[C@@H]1C(=O)N(C)c2cnc(Nc3ccc(C(=O)N[C@H]4CC[C@H](N5CCN(CC6CC6)CC5)CC4)cc3OC)nc2N1C(C)C [Volasertib],1.28 ± 0.3,1.15 ± 0.025
C=C1C(=O)O[C@@]23[C@H]1CC[C@@H](C)[C@@H]2CC[C@@]1(C)O[C@@H]31 [Arteannuin B],1.08 ± 0.26,1.11 ± 0.018
Cc1nc(C(=O)NCC(=O)O)c(O)c2ccc(Oc3ccccc3)cc12 [Roxadustat (FG-4592)],0.966 ± 0.21,1.18 ± 0.089
CC[C@H](NC(=O)[C@H](C)NC)C(=O)N1C[C@@H](O)C[C@H]1Cc1c(-c2[nH]c3cc(F)ccc3c2C[C@@H]2C[C@H](O)CN2C(=O)[C@H](CC)NC(=O)[C@H](C)NC)[nH]c2cc(F)ccc12 [Birinapant],0.607 ± 0.1,0.532 ± 0.035
O=C(Nc1cnn2ccc(N3CCC[C@@H]3c3cc(F)ccc3F)nc12)N1CC[C@H](O)C1 [Larotrectinib],1.14 ± 0.19,0.947 ± 0.2
CN1C(=O)N[C@H](Cc2c[nH]c3c(Cl)cccc23)C1=O [Necrostatin 2],1.07 ± 0.24,0.972 ± 0.021
CC1=NN(c2ccc(C)c(C)c2)C(=O)/C1=N\Nc1cccc(-c2cccc(C(=O)O)c2)c1O [Eltrombopag],1.04 ± 0.22,0.988 ± 0.079
O=C(O)C1=CC(=C(c2ccc(O)c(C(=O)O)c2)c2ccc(O)c(C(=O)O)c2)C=CC1=O [Aurintricarboxylic acid],1 ± 0.035,1 ± 0.056
O=C(O)Cn1nnc(-c2ccc(CN(CCCCOc3ccc(CN4CCCC4)cc3)CCc3ccccc3)cc2)n1,1.03 ± 0.23,1.14 ± 0.062
CC1(C)Cc2c(-c3ccccc3)c(-c3ccc(Cl)cc3)c(CC(=O)O)n2C1 [Licofelone],1.18 ± 0.28,1.09 ± 0.27
CN1CCN(c2ccc(-c3cccc(CN4CCOCC4)c3)cc2NC(=O)c2c[nH]c(=O)cc2C(F)(F)F)CC1,1.18 ± 0.19,1.21 ± 0.17
CC(C)(C)c1cc(NC(=O)Nc2ccc(-c3cn4c(n3)sc3cc(OCCN5CCOCC5)ccc34)cc2)no1 [Quizartinib (AC220)],1.17 ± 0.16,1.227 ± 0.0014
CCOC(=O)/C=C(C)/C=C/C=C(C)/C=C/c1c(C)cc(OC)c(C)c1C [Etretinate],1.11 ± 0.12,1.12 ± 0.27
O=c1c(O)c(-c2ccc(O)cc2)oc2cc(O)cc(O)c12,1.11 ± 0.088,1.1 ± 0.079
COc1ccc(S(=O)(=O)Nc2cc(-c3csc(C#N)c3)ccc2C)cc1,1.25 ± 0.15,1.19 ± 0.041
CCCc1ccc(OCC(=O)N(Cc2nc(-c3cccnc3)no2)C(C)C)cc1,1.12 ± 0.14,1.09 ± 0.16
